Here are results for two molecules from publication PMC5651818, “VPS18 recruits VPS41 to the human HOPS complex via a RING–RING interaction” (Biochemical Journal, 2017).

The target in assay [1] is His-tagged VPS18 RING domain (residues 842–973) (human) (UniProt Q9P253). The assay can be described thus: SEC-MALS; Superdex 75 10/300, room temperature, 20 mM Tris (pH 7.5), 150 mM NaCl, 0.5 mM EDTA; complex formed from 0.48 mg/ml VPS41 RING and 0.68 mg/ml VPS18 RING H6 on ice for 15 min; both purified. (Size exclusion chromatography separates by hydrodynamic size, large species first.)

Assay [2] has as its target T1, GST VPS8 RING short (residues 1246–1320) (human) (UniProt Q8N3P4).
T1 sequence: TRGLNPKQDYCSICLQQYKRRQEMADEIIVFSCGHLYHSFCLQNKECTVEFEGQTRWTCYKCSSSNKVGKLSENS
The assay can be described thus: pull-down; 1.5 nmol purified GST-tagged bait on magnetic glutathione beads; 1.5 nmol purified prey from E. coli; 4°C, 60 min; 20 mM Tris, 200 mM NaCl, 0.1% NP-40, 1 mM DTT; SDS-PAGE (Coomassie); both purified.

The target in assay [3] is T2, GST VPS8 RING long (residues 1246–1426) (human) (UniProt Q8N3P4).
T2 sequence: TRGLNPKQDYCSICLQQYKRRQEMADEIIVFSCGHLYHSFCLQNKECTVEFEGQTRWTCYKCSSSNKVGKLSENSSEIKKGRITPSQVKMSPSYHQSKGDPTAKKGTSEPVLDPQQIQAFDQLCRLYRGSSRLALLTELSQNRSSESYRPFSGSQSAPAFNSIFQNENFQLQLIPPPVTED
The assay is described as above.

Assay [4] has as its target tag-free VPS41 RING domain (residues 778–854) (human) (UniProt P49754). The assay can be described thus: SEC-MALS; Superdex 75 10/300, room temperature, 20 mM Tris (pH 7.5), 150 mM NaCl, 0.5 mM EDTA; complex formed from 0.48 mg/ml VPS41 RING and 0.68 mg/ml VPS18 RING H6 on ice for 15 min; both purified.

No constants are given. Whether binding was seen depends on the method and setting. Where a sequence is shown, tags or fusion partners need not be part of it.

B1: His-tagged VPS18 RING domain (residues 842–973) (domain or fragment, UniProt Q9P253 842-973)
chain: GRYGTVEPQDKCATCDFPLLNRPFYLFLCGHMFHADCLLQAVRPGLPAYKQARLEELQRKLGAAPPPAKGSARAKEAEGGAATAGPSREQLKADLDELVAAECVYCGELMIRSIDRPFIDPQRYEEEQLSWL
Turning to B1, the binding entry is “no binding (tested: injected at 1.16 mg/ml)” in assay [1]; “no binding (tested: 1.5 nmol bait, 1.5 nmol prey)” in assay [2]; “no binding (tested: 1.5 nmol bait, 1.5 nmol prey)” in assay [3].

B2: tag-free VPS41 RING domain (residues 778–854) (domain or fragment, human, UniProt P49754 778-854, looked up)
chain: TQMKGVLVDEENICESCLSPILPSDAAKPFSVVVFHCRHMFHKECLPMPSMNSAAQFCNICSAKNRGPGSAILEMKK
notes: monomeric by SEC-MALS; also called untagged VPS41 RING; not shown: GST, N-terminal, cleaved
B2: in assay [4], the binding result is “no binding (tested: injected at 1.33 mg/ml)”.
